According to PubChem BioAssay AID493208 (National Center for Advancing Translational Sciences (NCATS), 2011):
About 340 (0.77%) of roughly 44,000 compounds were called active. Another 5% or so got no clear call; they are omitted. The call rests on the fitted dose curve; in most records, active means well fitted inhibition curve with a large enough effect; inconclusive means small, poorly fitted or top-dose-only effect; inactive means flat fitted curve, though single readings scatter. Some of the results follow.

Experiment: Acumen qHTS Assay for Inhibitors of the mTORC1 Signaling Pathway in MEF (Tsc2-/-, p53-/-) Cells: Sytravon; further: nearly all actives have a fitted effect of over 50% in size;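 on activity change, negative = inhibition: plate controls were DMSO for no effect and rapamycin for full effect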
Settings: phospho-rpS6 immunofluorescence/PI, 24 h; series mostly up to 38.3 µM; activity change, negative = inhibition: at the top concentration
Outline: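 Immunofluorescence of rpS6 phosphorylation in Tsc2-/-, p53-/- MEFs after 24 h compound exposure, normalized to propidium iodide signal. Activity is expressed as % positive cells, thresholded with 7.5 nM rapamycin.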
Potency means the concentration at half of the fitted maximal effect.

Structure (SMILES)	activity change, negative = inhibition	Potency
COc1cccc(/C=C/c2onc(C)c2S(=O)(=O)N2CCC(C(=O)N3CCC(C)CC3)CC2)c1	inactive: -12.3%	
Cc1cc2ccccc2n1-c1ccc(C(=O)N2CCC(C(=O)NCc3ccccc3Cl)CC2)s1	inactive: -1.48%	
COc1ccccc1N1CCN(C(=O)CSc2n[nH]c(-c3ccccc3)n2)CC1	inactive: 4%	
CC(CNC(=O)Cc1ccc(NC(=O)N2CCSc3ncccc32)cc1)c1ccccc1 (stereo not drawn)	inactive: 1.66%	
Cc1ccccc1NCc1cccn1-c1nnc(N2CCC(C)CC2)s1	inactive: -1.93%	
COc1ccc(-c2cn3c(n2)sc2cc(C(=O)Nc4cccc(OC)c4)ccc23)cc1	inactive: 3.67%	
CCOC(=O)C1=C(CN2CCN(c3ccccc3F)CC2)NC(=O)NC1c1ccc(Cl)cc1 (stereo not drawn)	inactive: -0.358%	
Cc1ccc(CNC(=O)C2CCN(S(=O)(=O)c3cc(-c4noc(C)n4)ccc3C)CC2)cc1	inactive: -0.866%	
CCOc1ccc(NC(=O)CC2C(=O)N(c3ccccc3)C(=O)N2Cc2ccc3c(c2)OCO3)cc1 (stereo not drawn)	inactive: -2.51%	
Cc1nc2c(-c3ccccc3)c(C)nn2c(C)c1CCC(=O)NCc1ccc(F)cc1	inactive: -9.58%	
Cc1c(Cl)cccc1-n1nc(C)c2c(C(=O)NCc3ccccc3)cc(C3CC3)nc21	inactive: 2.87%	
Cn1c(=O)oc2cc(S(=O)(=O)Nc3ccccc3O)ccc21	inactive: -13.8%	
CCOc1ccc(CCNC(=O)c2cc3c(s2)-c2ccccc2OC3)cc1OCC	inactive: 0.706%	
Cc1ccc(-c2cc(NC(=O)COc3ccc(Cl)cc3C)on2)cc1	inactive: 0.524%	
COc1ccc(-c2cc(C(F)(F)F)nc(SCC(=O)N3CCC(C)CC3)n2)cc1	inactive: -1.95%	
O=C(NCc1ccc(Cl)cc1)C1CCN(S(=O)(=O)Cc2ccccc2)CC1	inactive: 5.13%	
CCCC(CCC)C(=O)Nc1cc(-c2cn3cccnc3n2)ccc1OC	inactive: -1.41%	
O=c1c(-c2ccc(Cl)cc2)c(C(F)(F)F)oc2c(CN3CCCCC3)c(O)ccc12	inactive: 2.23%	
CCc1ccc(N2C(=O)CSC23C(=O)N(Cc2ccc(C)cc2)c2ccccc23)cc1 (stereo not drawn)	inactive: -7.24%	
COc1ccc(Cn2cc(C(=O)c3ccc(C)cc3)c(=O)c3cc(OC)c(OC)cc32)cc1	inactive: -9.14%	
COc1ccc(S(=O)(=O)c2c(C)c(NS(=O)(=O)c3ccccc3)cc(C)c2O)cc1	inactive: -3.89%	
Cc1oc(-c2cccc(Cl)c2)nc1CN1CCC(C(=O)NCCCN2CCN(c3ccc(F)cc3)CC2)CC1	inactive: 0.0888%	
O=C(CSc1nc2c(c(=O)[nH]1)CCC2)Nc1ccccc1C(F)(F)F	inactive: 0.464%	
O=C(c1ccc2c(c1)CCCC2)N1CCN(c2nc3c(F)cccc3s2)CC1	inactive: 5.27%	

Structure (SMILES)	activity change, negative = inhibition	Potency
COc1cc(C(c2c(C)[nH][nH]c2=O)c2c(C)[nH][nH]c2=O)ccc1OC(=O)c1cccc(C)c1	inactive: 1.11%	
CCn1cc(C(=O)NCc2ccccc2)c(=O)c2cc(S(=O)(=O)N3CCc4ccccc4C3)ccc21	inactive: -13.5%	
CCOC(=O)C1CCCCN1S(=O)(=O)c1csc(C(N)=O)c1 (stereo not drawn)	inactive: -1.42%	
Cc1ccc(C2=CC(c3ccccc3F)n3c(nc4ccccc43)N2)cc1C (stereo not drawn)	inactive: -0.749%	
CN(C)c1ccc(-n2c(CCC(=O)O)ccc2-c2ccccc2)cc1	inactive: -3.22%	
COc1ccc(CC(=O)NCc2ccc3c(c2)CCN3C(=O)c2ccccc2)cc1OC	inactive: 0.892%	
COc1ccc(C2=NC(c3ccncc3)=Nc3ccc(Br)cc3N2)cc1	inactive: 3.01%	
CCOC(=O)C1=C(CN2CCCCC2)NC(=O)NC1c1cc(C)ccc1C (stereo not drawn)	inactive: 3.67%	
CCn1cc(C(=O)N2CCN(c3ccc(F)cc3)CC2)c(=O)c2cc(S(=O)(=O)N(C)C3CCCCC3)ccc21	inactive: -8.16%	
CCc1cccc(NC(=O)C2CCCN(S(=O)(=O)c3cccs3)C2)c1 (stereo not drawn)	inactive: -21.2%	
CC(C)(C)c1ccc(OCCn2cc(C(=O)c3ccco3)c3ccccc32)cc1	inactive: 0.533%	
COc1ccccc1N1CCN(C(CNC(=O)C(=O)NCc2ccc(C)cc2)c2cccnc2)CC1 (stereo not drawn)	inactive: -0.496%	
Cc1cccc(-c2nc3c(c(SCc4ccccc4Cl)n2)Cc2c(CO)cnc(C)c2O3)c1	inactive: 5.16%	
COc1cc(Cl)c(C)cc1NC(=O)c1cc2c(Cl)nc3ccc(C)cc3c2s1	inactive: 0.31%	
CCOc1ccccc1NC(=O)c1c(NC(=O)C(C)Oc2ccc(Cl)cc2)sc2c1CCCCC2 (stereo not drawn)	inactive: -9%	
Cc1ccc(NS(=O)(=O)c2ccc3c(c2)CC(C)N3C(=O)C2CCC2)cc1Cl (stereo not drawn)	inactive: -0.173%	
CC(C)CC1N=C2c3ccccc3N=C(SCC(=O)NCCc3ccc(Cl)cc3)N2C1=O (stereo not drawn)	inactive: 0.72%	
CNC(=O)CN1C(=O)c2cccnc2Sc2ccccc21	inactive: 3.84%	
CCNC(=O)c1cnc2c(-c3ccccc3)c(C)nn2c1C	inactive: -0.224%	
CC(C)CCn1c(=O)c2sccc2n2c(CCCC(=O)NC(C)C)nnc12	inactive: 0.438%	
COc1ccc(-c2nc3cc(C)ccn3c2NC(=O)c2ccc(C)c(C)c2)cc1	inactive: 2.71%	
COc1ccc(-n2c(=O)c3c4c(sc3n(Cc3ccccc3Cl)c2=O)CCC4)c(OC)c1	inactive: -2.44%	
COc1cccc(CNC(=O)CN(C)S(=O)(=O)c2ccc3[nH]c4c(c3c2)CCCC4)c1	inactive: -3.87%	
CCOc1ccccc1CNC(=O)C1CCCN(c2ncnc3onc(-c4ccc(F)cc4)c23)C1 (stereo not drawn)	inactive: -0.675%	

Structure (SMILES)	activity change, negative = inhibition	Potency
CCCCOc1ccc(CN2C(=O)C(=O)c3cc(Br)cc(C)c32)cc1OC		active: 9.27 µM
Cc1cccc(C)c1-n1ncc(C(=O)Nc2ccc3c(c2)OCO3)c1C1CCN(C(=O)OC(C)(C)C)CC1	inactive: -13%	
COc1cccc(-c2cc(C(F)(F)F)nc(NCCc3ccccc3)n2)c1	inactive: 1.5%	
Cc1ccc(CN2CCc3nc(N4CCN(c5ccccc5F)CC4)ncc3C2)cc1C	inactive: 9.2%	
COc1ccccc1CCNC(=O)c1ccc2c(c1)c(C)c(C)n2Cc1ccc(Cl)cc1	inactive: -0.767%	
O=C(NCc1ccccc1Cl)C1CCCN(C(=O)c2cnn(-c3ccccc3)c2-n2cccc2)C1 (stereo not drawn)	inactive: 1.31%	
Cc1ccc2c(c1)-c1nc(-c3ccc4c(c3)NC(=O)CO4)cc(-c3ccc(F)cc3)c1CO2	inactive: 1.45%	
O=C(CSc1nnc(-c2ccc(O)cc2)o1)c1ccc(Br)cc1	inactive: -1.57%	
COc1ccccc1C(=O)Nc1c(C(=O)N(C)Cc2ccccc2)sc2nc(C)c(Cl)c(C)c12	inactive: 1.57%	
Cc1ccccc1-c1nnc(CN2CCN(c3ccccn3)CC2)o1	inactive: -2.39%	
COc1ccc(-c2noc(-c3ccc(N4CCN(C)CC4)c([N+](=O)[O-])c3)n2)cc1OC	inactive: -1.56%	
CCOC(=O)c1ccc(NC(=O)N2CCOc3ccccc32)cc1	inactive: 4.59%	
COCCCNC(=O)C(=O)Nc1c2c(nn1-c1cccc(Cl)c1)CSC2	inactive: -4.77%	
CNC(=O)Cn1cc(S(=O)(=O)Cc2ccccc2F)c2ccccc21	inactive: 4.48%	
COC(=O)c1c(-c2cccs2)csc1NC(=O)COc1c(C)ccc(C)c1C	inactive: 1.16%	
CCOc1ccc(CCNC(=O)c2cnc3sc(N4CCC(C)CC4)nn3c2=O)cc1	inactive: 5.05%	
COc1ccc(-c2oc3ncn4nc(COc5c(C)cccc5C)nc4c3c2-c2ccc(OC)cc2)cc1	inactive: -8.29%	
Cc1nn(C(=O)c2ccccc2F)c(C)c1S(=O)(=O)N1CCCCCC1	inactive: -2.76%	
CCCCCSc1nc2sc3c(c2c(=O)n1-c1ccccc1)CCN(C(C)=O)C3	inactive: -1.73%	
CCOc1ccccc1NC(=O)N1CCc2cc(S(=O)(=O)N3CCC(C)CC3)ccc21	inactive: -3.09%	
Cc1ccc(Cn2c(SCc3ccc(C(=O)N4CCCCCC4)cc3)nc3ccncc32)cc1	inactive: 1.08%	
Cc1cccc(NC(=O)c2sc(-n3nc(C)c(Cc4ccc5c(c4)OCO5)c3C)nc2C)c1C	inactive: -5.61%	
COc1cccc(NC(=O)N2CCN3CCCCC3C2)c1 (stereo not drawn)	inactive: -2.45%	
CCCOC(=O)CSc1ncnc2sc3c(c12)CCC(C)C3 (stereo not drawn)	inactive: -29.1%	

Structure (SMILES)	activity change, negative = inhibition	Potency
COc1ccc(-c2cc(C)no2)cc1S(=O)(=O)NC(C)C	inactive: 2.32%	
COc1ccc(CN2CCc3nc(SCC(=O)Nc4cc(C)cc(C)c4)[nH]c(=O)c3C2)cc1	inactive: -9.37%	
COc1ccc(-c2noc(Cn3c(=O)c4ccccc4n(CC(=O)Nc4cccc(OC)c4)c3=O)n2)cc1	inactive: -7.61%	
COc1cc(OC)cc(N2C(=O)N(CC(=O)c3ccc(F)cc3)c3ccccc3S2(=O)=O)c1	inactive: 1.32%	
COc1ccc(-c2noc(CSc3nnc(C)n3-c3ccc(OC)cc3)n2)cc1	inactive: -3.29%	
COc1ccccc1NC(=O)c1sc2nc(N3CCOCC3)c3c(c2c1N)CC(C)(C)OC3	inactive: 6.2%	
Cc1ccc(NC(=O)CSc2ncc3c(n2)-c2ccc(Cl)cc2N(C)S3(=O)=O)cc1F	inactive: -7.6%	
CCOC(=O)c1ccc(NC(=O)c2oc(=O)c3ccccc3c2-c2ccccc2)cc1	inactive: 0.0414%	
CCCCOC(=O)c1ccc(NC(=O)Cn2nnc3sc4c(c3c2=O)CCCC4)cc1	inactive: 2.53%	
O=C(NCc1cccs1)c1ccc(Cn2c(SCc3cccc(F)c3)nc3cccnc32)cc1	inactive: -7.57%	
CCC(=O)N1CCc2cc(S(=O)(=O)CCC(=O)NCc3ccc(C)cc3)ccc21	inactive: 0.636%	
COc1ccccc1-c1nc2c(c(SCC(=O)Nc3c(C)cc(C)cc3C)n1)Cc1c(CO)cnc(C)c1O2	inactive: -2.5%	
CCc1cccc(NC(=O)C(Cc2ccccc2)NS(=O)(=O)c2ccc3c(c2)oc(=O)n3C)c1 (stereo not drawn)	inactive: -11.9%	
CCOC(=O)c1c(NC(=O)c2cc3nc(-c4ccc(OC)cc4)cc(C(F)(F)F)n3n2)sc2c1CCC(C)C2 (stereo not drawn)	inactive: -1.14%	
Cc1ccc(N2C(=O)N(CC(=O)C(C)(C)C)c3ccccc3S2(=O)=O)cc1C	inactive: -0.749%	
CCc1cccc(NC(=O)c2cc3c(=O)n(Cc4ccc(OC)cc4)ccc3nc2C)c1	inactive: -9.71%	
CCCSc1nnc2c(n1)OC(c1sccc1C)Nc1ccccc1-2 (stereo not drawn)	inactive: 3.02%	
CCOc1ccc(-c2cc(C(=O)N3CCN(S(=O)(=O)c4cc(Cl)ccc4OC)CC3)[nH]n2)cc1	inactive: 0%	
Cc1cc2oc(C(=O)N(Cc3ccccc3F)C3CCS(=O)(=O)C3)c(C)c2cc1Cl (stereo not drawn)	inactive: -16.5%	
Cc1ccc(C)c(N2CCN(C(=O)Cn3ncc4ccsc4c3=O)CC2)c1	inactive: -3.34%	
CCOC(=O)c1ccc(NC(=O)c2c(N3CCCC3=O)c3cc(OC)ccc3n2C)cc1	inactive: -5.07%	
